Results taken from PubChem BioAssay AID1345082 (National Center for Advancing Translational Sciences (NCATS), 2018).
Where “and” joins values, the source holds several entries; their conditions need not be identical. Equal entries are not always repeated. In all, about 94,000 compounds went through this assay and about 4,000 (4.3%) were called active. The inconclusive results got no clear call from the source; some entries with a clear call stand among them for comparison. Calls follow the shape of the dose curve; as a rule, active = well fitted inhibition curve with a large enough effect; inconclusive = small, poorly fitted or top-dose-only effect; inactive = no such curve, though single readings can be large or run the other way. A potency beside an inconclusive call is a rough fit, not a confirmed value.

experiment: Cytotoxic Profiling in NIH 3T3 Cell Line of Diverse Libraries Using Quantitative High-Throughput Screening; conditions: NIH 3T3 viability, CellTiter-Glo ATP luminescence, 48-72 h; series mostly up to 96.7 µM; also: nearly all actives have a fitted effect of over 55% in size
Procedure, shortened: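 Cells were seeded at 400 per well, treated with pin-transferred compound, and kept 48 or 72 hr at 37 °C before CellTiter-Glo addition and luminescence imaging of cellular ATP.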
Potency is read from the fitted curve at half-maximal effect; tags tell the direction and shape of the fitted curve.

Compound	Potency
O=C(CCc1ccc(CC2CCN(Cc3ccncc3)CC2)cc1)NC1CC1	inactive
Cc1ccc(C(=O)N2CCC[C@@H]2C(=O)N2CCC(N3CCOC3=O)CC2)cc1	inactive
COC(=O)C1=C(C)N(Cc2ccc(Br)cc2)C(=O)CC1c1ccccc1Cl (configuration not stated)	inconclusive: 50.1 µM [inhibitor, partial curve, poor fit]
COc1ccccc1Nc1ccnc(N2CCCC(C(=O)NC3CCC3)C2)n1 (configuration not stated)	inconclusive: 44.7 µM [inhibitor, partial curve, poor fit]
Cc1cnc(C2CC2)n1C1CCCN(Cc2ccccc2)C1 (configuration not stated)	inconclusive: 44.7 µM [inhibitor, partial curve, poor fit]
CN1CCCC12Cc1ccccc1CN(S(=O)(=O)c1ccccc1)C2 (configuration not stated)	inconclusive: 79.4 µM [inhibitor, partial curve, poor fit]
Cc1noc([C@@H]2CN(S(=O)(=O)c3ccc(C#N)cc3)C[C@H]2C(N)=O)n1	inactive
COc1ccc(CN2CC[C@H](c3nc4ccc(C)cc4[nH]3)C2)cc1	active: 79.4 µM
Cc1noc(C)c1[S+](=O)([O-])N1CCC2(C1)C(=O)N(CCc1ccccc1)c1ccccc12 (configuration not stated)	inconclusive: 44.7 µM [inhibitor, partial curve, poor fit]
O=C(c1ccccc1F)N1CCCN(c2cc(-c3ccccc3)[nH]n2)CC1	inactive
Cc1ccc(Nc2ccnc(N3CCC(C(=O)NC(C)C)CC3)n2)cc1	inconclusive: 35.5 µM [inhibitor, partial curve]
COC[C@@H]1CN(C(=O)c2ccc3ncccc3c2)C[C@H]1c1ccncc1	inconclusive: 39.8 µM [inhibitor, partial curve, poor fit]
O=C1Nc2ccc(-c3cccc(C(F)(F)F)c3)cc2C(=O)N2CCN(C(=O)NC3CCCCC3)C[C@H]12	inconclusive: 56.2 µM [inhibitor, partial curve, poor fit]
Cc1ccc(C(=O)N(CC(C)C)CC2CN(C(=O)Nc3cccc(Cl)c3)CCO2)cc1 (configuration not stated)	inconclusive: 31.6 µM [inhibitor, full curve]
COc1cccc(CNC(=O)[C@@H]2C[C@@H](O)CN2C2CCN(C(=O)Cc3cccc(OC)c3)CC2)c1	inactive
COc1ccc(-c2noc(CCCC(=O)N3CCCC3c3nc(C4CCOCC4)no3)n2)cc1OC (configuration not stated)	inconclusive: 70.8 µM [inhibitor, single point]
Cc1cc(NC(=O)c2ccc3c(c2)OCCN(C2CCC2)C3)ccc1F	inconclusive: 39.8 µM [inhibitor, full curve]
CN(C)c1cccc(C(=O)NCC2CCN(c3cc(-c4ccc(F)cc4)[nH]n3)CC2)c1	inconclusive: 50.1 µM [inhibitor, partial curve, poor fit]
CC(C)NC(=O)N1CCC2(CC1)CN(C(=O)c1cccc3[nH]ccc13)Cc1ccccc1O2	inactive
COc1ccc(OC)c(S(=O)(=O)N2C[C@@H](Oc3ccccc3)C[C@H]2C(=O)NC2CC2)c1	inconclusive: 70.8 µM [inhibitor, single point]
CC(=O)Nc1ccc(NC(=O)Cn2ccn3nc(-c4ccccc4)c(CO)c3c2=O)cc1	inactive

Compound	Potency
CCc1cccc(NC(=O)N2CCCC(c3noc(COc4ccccc4)n3)C2)c1 (configuration not stated)	active: 31.6 µM
CC(C)CNC(=O)Cc1ccc(N(Cc2ccccc2)C(=O)c2ccco2)cc1	inconclusive: 56.2 µM [inhibitor, partial curve, poor fit]
COc1cccc(-c2cn3cc(C(=O)Nc4ccc(F)cc4)nc3s2)c1	inconclusive: 50.1 µM [inhibitor, partial curve, poor fit]
O=C(NCc1ccc(F)cc1)c1ccc2oc(-c3ccncc3)nc2c1	inactive
CC1(c2cccnc2)N(Cc2ccccc2)C(=O)OC12CCN(C(=O)C1CCOCC1)CC2 (configuration not stated)	inconclusive: 44.7 µM [inhibitor, partial curve, poor fit]
O=C(NCc1cccs1)c1ccc2nnc(Cc3ccco3)n2c1	inconclusive: 79.4 µM [inhibitor, partial curve, poor fit]
COc1ccc(Nc2ccc3c(n2)CN(Cc2ccc(C(F)(F)F)cc2)C(=O)CO3)cn1	inconclusive: 44.7 µM [inhibitor, partial curve, poor fit]
Cc1ccc(C(=O)N2CC(CN3C(=O)c4c(c(C)nn4-c4ccccc4)C3C3CC3)C2)cc1 (configuration not stated)	inconclusive: 14.1 µM [inhibitor, full curve, poor fit]
NC(=O)[C@@H]1CN(Cc2ccccn2)C[C@H]1COc1ccccc1	inconclusive: 70.8 µM [inhibitor, single point]
Cc1cc(C)cc(-c2ccc(CN3CCCC3C(=O)NCc3ccc4c(c3)OCO4)cc2)c1 (configuration not stated)	active: 35.5 µM
CCOc1ccc2c(n1)CCN(C(=O)c1ccc(OC)nc1OC)C2	inactive
O=C(NCC1CCOCC1)C1c2ccccc2C(=O)N(Cc2ccccc2)C12CCCC2 (configuration not stated)	inconclusive: 70.8 µM [inhibitor, single point]
COc1ccc(F)cc1-c1cccc(C(=O)NCC(=O)NCCc2cccc(F)c2)c1	inconclusive: 70.8 µM [inhibitor, partial curve, poor fit]
C#CCNC(=O)C1CCN(c2nccc(Nc3ccc(C)cc3)n2)CC1	inconclusive: 39.8 µM [inhibitor, full curve]
Cc1ccc(-c2cc(C(=O)NCCc3ccc(F)cc3)c3cnn(C)c3n2)c(C)c1	inconclusive: 50.1 µM [inhibitor, partial curve, poor fit]
Cc1ccncc1-c1c(C)nn2c1N(C(=O)c1scnc1C)CCC2	inconclusive: 79.4 µM [inhibitor, partial curve]
COc1ccc(-c2cn3c(n2)N(C(=O)Cc2cccs2)CCC3)cc1	inconclusive: 70.8 µM [inhibitor, single point]
COc1ccnc(N2CC[C@H](c3nnc(-c4ccc(N(C)C)cc4)o3)C2)n1	inconclusive: 39.8 µM [inhibitor, partial curve, poor fit]
CC(=O)Nc1ccc(CN2CCCC3(CC(c4cccc(C(F)(F)F)c4)=NO3)C2)cc1 (configuration not stated)	inconclusive: 44.7 µM [inhibitor, partial curve, poor fit]
Cc1ccccc1-n1cc(CN(C)Cc2nc(-c3ccc(C(F)(F)F)cc3)no2)cn1	inconclusive: 50.1 µM [inhibitor, partial curve, poor fit]
CO[C@H]1[C@H](NC(=O)c2cc(CC(C)C)no2)c2ccccc2C12CCNCC2	inconclusive: 89.1 µM [inhibitor, single point]

Compound	Potency
O=C(C1CCCN1C(=O)c1ccccc1F)N1CCC(N2Cc3ccccc3C2=O)CC1 (configuration not stated)	inactive
O=C(c1ccncc1)N1CCC(OCC2CC2)C1 (configuration not stated)	inactive
O=C(c1cccc(F)c1)N1CC[C@H]2COC(=O)N2c2cc(F)ccc2C1	inactive
CC(C)NC(=O)c1cc(-c2ccccc2)nc2c1cnn2C	inconclusive: 79.4 µM [inhibitor, partial curve, poor fit]
Cc1cnc(C2CC2)n1CCNC(=O)C1CC1	inactive
Cc1noc2c(-c3ccc(N4CCOCC4)cc3)cc(-c3ccccc3)nc12	inconclusive: 50.1 µM [inhibitor, full curve]
O=C(NC1CCCC1)N1CCC(C(=O)N2CCC(N3Cc4ccccc4C3=O)CC2)CC1	inactive
c1ccc(Oc2ccc(Nc3ncc(-c4cncnc4)c4c3OCC4)cc2)cc1	inconclusive: 39.8 µM [inhibitor, partial curve, poor fit]
O=C(C1CCCN(Cc2cccc(-c3cccs3)c2)C1)N1CCN(Cc2ccccc2)CC1 (configuration not stated)	active: 35.5 µM
O=C(C1CCCC1)N1CCC2(C1)C(=O)N(CCc1ccccc1)c1ccccc12 (configuration not stated)	inconclusive: 44.7 µM [inhibitor, partial curve, poor fit] and inconclusive: 50.1 µM [inhibitor, partial curve, poor fit]
O=C1CC(c2ccccc2)N(Cc2ccncc2)CCCN(S(=O)(=O)c2cccnc2)CCN1 (configuration not stated)	inactive
COc1ccccc1CN1CCN(C(=O)CC2CCOCC2)CC1	inactive
N#Cc1cccc(CN2C[C@H](O)C[C@H]2c2nc(-c3ccc(F)cc3)no2)c1	inconclusive: 50.1 µM [inhibitor, full curve]
CC(C)CNc1ccc2c(n1)C(C)(C(=O)NC1CCN(C)CC1)CN(Cc1ccccc1)C2 (configuration not stated)	active: 31.6 µM
O=C(c1ccc(C(F)(F)F)cc1)N1CCCC(C(=O)N2CCC(c3nc4ccncc4[nH]3)CC2)C1 (configuration not stated)	inconclusive: 50.1 µM [inhibitor, partial curve, poor fit]
COc1ncccc1-c1cnc2[nH]cc(CC(=O)N3CCOCC3)c2c1	inconclusive: 89.1 µM [inhibitor, partial curve, poor fit]
COCc1ccc2c(c1)c(OC(C)(C)C(=O)Nc1ccn(C)n1)nn2Cc1cccc(OC)c1	inconclusive: 56.2 µM [inhibitor, partial curve, poor fit]
CN1CCCN(S(=O)(=O)c2cccs2)c2ccccc21	inconclusive: 31.6 µM [inhibitor, full curve]
O=C(NCc1ccccn1)C1c2ccccc2C(=O)N(C2CCCCC2)C12CCCCC2 (configuration not stated)	inconclusive: 50.1 µM [inhibitor, partial curve, poor fit]
O=C(Nc1cccc(Cl)c1)C1CCCN(Cc2cccc(-c3cccs3)c2)C1 (configuration not stated)	inconclusive: 39.8 µM [inhibitor, partial curve, poor fit]
